From the RNAGym collection of RNA variant scans (doi:10.1073/pnas.2313332121)
This sample is rich in variants without activity.

B1: TPR 5TU (parent)
chain: GGAUCUUCUCGAUCUAACAAAAAAGACAAAUCUGCCACAAAGCUUGAGAGCAUCUUCGGAUGCAGAGGCGGCAGCCUUCGGUGGCGCGAUAGCGCCAACGUUCUCAACUAUGACACGCAAAACGCGUGCUCCGUUGAAUGGAGUUUAUCAUG

Variants of: B1
Test: polymerase ribozyme fitness, log enrichment relative to wild type (log ratio); higher = more active; in vitro selection for triplet polymerase activity
Summary of the method: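 Mutant libraries were PCR-built and transcribed for each subunit of a heterodimeric triplet polymerase ribozyme and selected for one round in triplicate at −7 °C, frozen, before gel excision of extended constructs and streptavidin-bead capture. Input and output libraries were Illumina-sequenced, keeping genotypes with ≥10 input reads and ≥1 read per output. Fitness is a logarithmic ratio of genotype to wild-type enrichment, in base 2, using inverse-variance-weighted replicate averages.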

Variant | polymerase ribozyme fitness (log ratio)
G46A C96U U134G A138G | ≤ -4.2
G46U G48C C85G U104G A119G | ≤ -4.2
A47C A115C A138G | ≤ -4.2
U45A G140A | ≤ -4.2
U45A U109G C132G | ≤ -4.2
G46A U77A C85G G136U | ≤ -4.2
A47C G48A U53G C85U A106C C118A A142U G143C | ≤ -4.2
U45A G50A C93U A115U G143C | ≤ -4.2
G46A C85A C87U C99A | ≤ -4.2
A47C U55G A60G C69U A91C G143C | ≤ -4.2
U45A G46C G86U U90G G124C | ≤ -4.2
G46C U53A G92U U111G U134C | ≤ -4.2
A47U A52U C75G C76A C95A A98G A142C | ≤ -4.2
A47G G81A A91C A137C U148C | ≤ -4.2
A47U C76G G94C U101G | ≤ -4.2
A47C U55A G71C C96A U134A A137C | ≤ -4.2
G46A C87G C93U U130G G133C | ≤ -4.2
A47G C75G U77C C118G | ≤ -4.2
A47C U61C C96U | -3.35
G46A G83U A89U U102G | ≤ -4.2
A47U C85G | -2.65

Variant | polymerase ribozyme fitness (log ratio)
A47U C85A | -2.21
G46C A47G C95U C131A G141C U146A | ≤ -4.2
U45A U55A G62A G65A G71U C95U U109G A137G A138U | ≤ -4.2
A47C U53A C79G C93U A115C C125U | ≤ -4.2
G46C C63A A91G A107U | ≤ -4.2
G46C A64C G71A C93G A147G | ≤ -4.2
A47C U61A U78G U82G G88U C99A G100C C118A G141C | ≤ -4.2
G46U U53G C54U U90A | ≤ -4.2
A47G G59C U61A G92C G141A U148C | ≤ -4.2
A47U G58C G88C | ≤ -4.2
A47C C105A C132A | ≤ -4.2
A47C C72G G83U A142G | ≤ -4.2
G46C A52G G65U C69U U90C A142G | ≤ -4.2
G46C U77G A142C | ≤ -4.2
A47C A150U | -0.247
U45G C108U | ≤ -4.2
G46A U78A G88C C96U C108A C116G G133U U144A | ≤ -4.2
A47U G88C A110U C125A | ≤ -4.2
A47G A52G U56C G88A C103G U146C A150G | ≤ -4.2
G46C G48A A73U U77C G80U C87U | -3.85
U45A G50C U53A C57A U101G U102G G126A C129G U134G G136U G140U | ≤ -4.2

Variant | polymerase ribozyme fitness (log ratio)
G46A U53A U55A U56A U61A G88U | ≤ -4.2
U45A G74U A107G | ≤ -4.2
A47C U78A | ≤ -4.2
U45G U77A C93U U102G U146G | ≤ -4.2
A47C C63A G83A | -1.37
G46U G88C A97U G136A | ≤ -4.2
A47C A97U G140U | ≤ -4.2
A47C G83U C105G C125A | ≤ -4.2
U45A G80C A106C A115C U127C | ≤ -4.2
G46U A60G G65C U82G C85A U111A C131G | ≤ -4.2
A47U C87U A91U U144C | ≤ -4.2
A47C U82C A97U C103G A115C | ≤ -4.2
A47U G59U G92U C96G U104G C108U | ≤ -4.2
A47C C76U A91C | ≤ -4.2
G46C U56A U77C A119C | ≤ -4.2
A47C U56A U78A U90G | ≤ -4.2
A47C G83A G92U A107C C132A | ≤ -4.2
A47C C57A | -0.176
A47C A52U U82A A120U | -1.94
A47C A49C G88A U139A U148A | ≤ -4.2
A47C U61A | -3.21

Variant | polymerase ribozyme fitness (log ratio)
A47G G80C C116G G117U C118G C129G | ≤ -4.2
G46A G88U A97U U104C A106G G141A | ≤ -4.2
A47U A89G C131A | ≤ -4.2
A47G U90C G92C G128U A137C A147C | ≤ -4.2
U45A G50A C96U U101G C108G A122G A138C | ≤ -4.2
A47C A91G C93A G141U | ≤ -4.2
A47U G68A C79G C85U G117U | ≤ -4.2
G46A A52C U61G | -0.687
G46C U61A C63U U82A A122G | ≤ -4.2
A47G U90G U109G C118A | ≤ -4.2
U45A G48U G50A G59C G68U C96U C131A A137C G152A | ≤ -4.2
A47U G83C A142G | -2.42
A47G U61A U78A C93U C105U A106G U144A | ≤ -4.2
G46C C87A G100C A106C C116A | ≤ -4.2
A47G G65A A66U C87U | ≤ -4.2
G46C U101G A107U A137C | -4.12
A47G G65A G68A G117A C125A | ≤ -4.2
G46U C57U C99A C103U A107U G124C | ≤ -4.2
U45G C54G | ≤ -4.2
U45A G50A A98U A106U U111G | ≤ -4.2
